Patent US20220267410A1 (UNIVERSITAT STUTTGART, published 2022)

B1: scTNFR2(143)-Fc(Δab) (protein 151) (Fc fusion)
chain: [about 150 residues not given here]GGGPSDKPVAHVVANPQAEGQLQWLNRRANALLANGVELRDNQLVVPSEGLYLIYSQVLFKGQGCPSTHVLLTHTISRIAVSYQTKVNLLSAIKSPCQRETPEGAEAKPWYEPIYLGGVFQLEKGDRLSAEINRPDYLNFRESGQVYFGIIALGGGPSDKPVAHVVANPQAEGQLQWLNRRANALLANGVELRDNQLVVPSEGLYLIYSQVLFKGQGCPSTHVLLTHTISRIAVSYQTKVNLLSAIKSPCQRETPEGAEAKPWYEPIYLGGVFQLEKGDRLSAEINRPDYLNFRESGQVYFGIIALGGSGGGGSGGDKTHTCPPCPAPPVAGPSVFLFPPKPKDTLMISRTPEVTCVVVDVSHEDPEVKFNWYVDGVEVHNAKTKPREEQYNSTYRVVSVLTVLHQDWLNGKEYKCKVSNKGLPSSIEKTISKAKGQPREPQVYTLPPSRDELTKNQVSLTCLVKGFYPSDIAVEWESNGQPENNYKTTPPVLDSDGSFFLYSKLTVDKSRWQQGNVFSCSVMHEALHNHYTQKSLSLSPGK
notes: Hexavalent dimer through the Fc(Δab) region; no His tag
B2: scTNFR2(141)-Fc(Δab) (protein 149) (Fc fusion)
chain: [about 150 residues not given here]GSRTPSDKPVAHVVANPQAEGQLQWLNRRANALLANGVELRDNQLVVPSEGLYLIYSQVLFKGQGCPSTHVLLTHTISRIAVSYQTKVNLLSAIKSPCQRETPEGAEAKPWYEPIYLGGVFQLEKGDRLSAEINRPDYLNFRESGQVYFGIIALGSRTPSDKPVAHVVANPQAEGQLQWLNRRANALLANGVELRDNQLVVPSEGLYLIYSQVLFKGQGCPSTHVLLTHTISRIAVSYQTKVNLLSAIKSPCQRETPEGAEAKPWYEPIYLGGVFQLEKGDRLSAEINRPDYLNFRESGQVYFGIIALGGSGGGGSGGDKTHTCPPCPAPPVAGPSVFLFPPKPKDTLMISRTPEVTCVVVDVSHEDPEVKFNWYVDGVEVHNAKTKPREEQYNSTYRVVSVLTVLHQDWLNGKEYKCKVSNKGLPSSIEKTISKAKGQPREPQVYTLPPSRDELTKNQVSLTCLVKGFYPSDIAVEWESNGQPENNYKTTPPVLDSDGSFFLYSKLTVDKSRWQQGNVFSCSVMHEALHNHYTQKSLSLSPGK
notes: as for B1
B3: scTNFR2(144)-Fc(Δab) (protein 152) (Fc fusion)
chain: [about 150 residues not given here]GGRTPSDKPVAHVVANPQAEGQLQWLNRRANALLANGVELRDNQLVVPSEGLYLIYSQVLFKGQGCPSTHVLLTHTISRIAVSYQTKVNLLSAIKSPCQRETPEGAEAKPWYEPIYLGGVFQLEKGDRLSAEINRPDYLNFRESGQVYFGIIALGGRTPSDKPVAHVVANPQAEGQLQWLNRRANALLANGVELRDNQLVVPSEGLYLIYSQVLFKGQGCPSTHVLLTHTISRIAVSYQTKVNLLSAIKSPCQRETPEGAEAKPWYEPIYLGGVFQLEKGDRLSAEINRPDYLNFRESGQVYFGIIALGGSGGGGSGGDKTHTCPPCPAPPVAGPSVFLFPPKPKDTLMISRTPEVTCVVVDVSHEDPEVKFNWYVDGVEVHNAKTKPREEQYNSTYRVVSVLTVLHQDWLNGKEYKCKVSNKGLPSSIEKTISKAKGQPREPQVYTLPPSRDELTKNQVSLTCLVKGFYPSDIAVEWESNGQPENNYKTTPPVLDSDGSFFLYSKLTVDKSRWQQGNVFSCSVMHEALHNHYTQKSLSLSPGK
notes: Hexavalent dimer through the Fc(Δab) region; no His tag; also called scTNFR2-Fc 152; variant 152
B4: scTNFR2(145)-Fc(Δab) (protein 153) (Fc fusion)
chain: [about 150 residues not given here]GGTPSDKPVAHVVANPQAEGQLQWLNRRANALLANGVELRDNQLVVPSEGLYLIYSQVLFKGQGCPSTHVLLTHTISRIAVSYQTKVNLLSAIKSPCQRETPEGAEAKPWYEPIYLGGVFQLEKGDRLSAEINRPDYLNFRESGQVYFGIIALGGTPSDKPVAHVVANPQAEGQLQWLNRRANALLANGVELRDNQLVVPSEGLYLIYSQVLFKGQGCPSTHVLLTHTISRIAVSYQTKVNLLSAIKSPCQRETPEGAEAKPWYEPIYLGGVFQLEKGDRLSAEINRPDYLNFRESGQVYFGIIALGGSGGGGSGGDKTHTCPPCPAPPVAGPSVFLFPPKPKDTLMISRTPEVTCVVVDVSHEDPEVKFNWYVDGVEVHNAKTKPREEQYNSTYRVVSVLTVLHQDWLNGKEYKCKVSNKGLPSSIEKTISKAKGQPREPQVYTLPPSRDELTKNQVSLTCLVKGFYPSDIAVEWESNGQPENNYKTTPPVLDSDGSFFLYSKLTVDKSRWQQGNVFSCSVMHEALHNHYTQKSLSLSPGK
notes: Hexavalent dimer through the Fc(Δab) region; no His tag; also called scTNFR2-Fc 153; variant 153

The binders below were run against T1, TNFR2 on Kym-1 cells (UniProt P20333 23-461, limits assumed) (assay: cell-based or functional assay).
T1 sequence (looked up): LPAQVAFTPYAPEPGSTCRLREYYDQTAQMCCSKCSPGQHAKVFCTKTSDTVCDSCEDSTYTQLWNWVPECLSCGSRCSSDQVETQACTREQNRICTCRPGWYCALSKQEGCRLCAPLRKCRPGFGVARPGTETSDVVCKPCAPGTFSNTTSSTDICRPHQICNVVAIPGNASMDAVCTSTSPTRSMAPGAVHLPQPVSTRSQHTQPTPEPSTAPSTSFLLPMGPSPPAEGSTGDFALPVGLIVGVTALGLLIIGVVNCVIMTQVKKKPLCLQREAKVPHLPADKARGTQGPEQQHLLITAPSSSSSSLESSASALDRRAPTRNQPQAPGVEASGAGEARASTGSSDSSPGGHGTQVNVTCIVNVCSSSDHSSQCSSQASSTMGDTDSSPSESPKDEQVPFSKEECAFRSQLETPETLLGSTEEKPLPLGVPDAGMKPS
B1 was tested, and the “EC50 on Kym-1 (cell death, crystal violet), without 80M2” value (shortened to “EC50 … without 80M2”) was 0.024 nM. B2 was tested, and the “EC50 … without 80M2” value was 0.0126 nM. For B3, the “EC50 … without 80M2” value was 0.00808 nM. In the case of B4, the “EC50 … without 80M2” value is reported as 0.0304 nM.

What follows are binders tested against T2, human TNFR2-Fc (etanercept) (human, UniProt P20333 23-257) (assay: ELISA on coated etanercept).
T2 construct: Commercial drug coated on ELISA plates (200 ng/well); also called immobilized TNF-R2; not shown: Fc part of etanercept
T2 sequence (looked up): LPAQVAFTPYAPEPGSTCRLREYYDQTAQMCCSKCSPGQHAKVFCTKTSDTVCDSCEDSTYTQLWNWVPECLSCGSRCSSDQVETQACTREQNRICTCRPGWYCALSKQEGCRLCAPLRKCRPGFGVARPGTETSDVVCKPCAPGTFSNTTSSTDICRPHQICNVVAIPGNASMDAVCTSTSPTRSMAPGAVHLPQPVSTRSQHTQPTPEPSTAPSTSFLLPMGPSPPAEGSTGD
Protocol: The binding of scTNFR2 and the scTNFR2-Fc(Δab) proteins to human TNFR2-Fc (etanercept) was analyzed by ELISA. 96-well ELISA plates were coated with 200 ng/well etanercept in coating buffer (0.1 M sodium carbonate, pH 9.5) overnight at 4° C., blocked with 2% skim milk in PBS (MPBS) and washed with washing buffer PBST (PBS, 0.05 Tween 20). ScTNFR2 and scTNFR2-Fc(Δab) proteins were titrated in duplicates and incubated on the plates for 2 h at room temperature, followed by washing with PBST. Receptor-bound complexes were detected with mouse anti-huTNFα F6C5 (Novus, 1 μg/ml) and goat anti-mouse IgG(Fc)-HRP (Sigma-Aldrich, 1:10,000), followed by extensive washing with PBST each, before incubation with HRP substrate.
Work on B1 yielded an EC50 of 0.25 nM. B2 gave an EC50 of 0.14 nM. B3 showed an EC50 of 0.29 nM. B4 was tested, and the EC50 was 0.18 nM.
